1 substance from patent publication US9555344 can be followed below.

Some entries of the source have several records that differ or are many. The list is limited to them. An entry can have further records. Values that stand side by side seem to repeat one measurement; a mean can stand among them.

In experiment [1] the target is Concanavalin A (UniProt P02866). Put plainly: Con A Sepharose affinity chromatography, 100 mg rHA loaded; albumin monomer in eluate by GP-HPLC as percent of load; sample final product.
For experiment [2] the target is unchanged. Put plainly: Con A Sepharose affinity chromatography, 100 mg rHA loaded; albumin monomer in eluate by GP-HPLC as percent of load; sample SP-FF2 flow through & washings.

With “recombinant human albumin (rHA) from a pmt1 mutant Saccharomyces cerevisiae, purified by the process of Example 1 (from UniProt P02768 25-609)”, the ConA-binding rHA (% of load) in the experiment with Concanavalin A [1] is 0.1, 0.11, 0.12, 0.07 % of load [columns of one line]; with Concanavalin A [2], 0.1, 0.12, 0.14, 0.09 % of load [columns of one line].
